Experimental data published in paper PMC7968864 (2020).
No end group written: not given here.

T1: NR peptide
T1 chain: NRLLLTG

T2: NR peptide (also: fluorescein-labelled, position not given here)
T2 chain: NRLLLTG

T3: NR peptide (also: fluorescein-labelled, position not given here)
T3 chain: NRLLLTG

B1: DnaK I160D (protein)
chain: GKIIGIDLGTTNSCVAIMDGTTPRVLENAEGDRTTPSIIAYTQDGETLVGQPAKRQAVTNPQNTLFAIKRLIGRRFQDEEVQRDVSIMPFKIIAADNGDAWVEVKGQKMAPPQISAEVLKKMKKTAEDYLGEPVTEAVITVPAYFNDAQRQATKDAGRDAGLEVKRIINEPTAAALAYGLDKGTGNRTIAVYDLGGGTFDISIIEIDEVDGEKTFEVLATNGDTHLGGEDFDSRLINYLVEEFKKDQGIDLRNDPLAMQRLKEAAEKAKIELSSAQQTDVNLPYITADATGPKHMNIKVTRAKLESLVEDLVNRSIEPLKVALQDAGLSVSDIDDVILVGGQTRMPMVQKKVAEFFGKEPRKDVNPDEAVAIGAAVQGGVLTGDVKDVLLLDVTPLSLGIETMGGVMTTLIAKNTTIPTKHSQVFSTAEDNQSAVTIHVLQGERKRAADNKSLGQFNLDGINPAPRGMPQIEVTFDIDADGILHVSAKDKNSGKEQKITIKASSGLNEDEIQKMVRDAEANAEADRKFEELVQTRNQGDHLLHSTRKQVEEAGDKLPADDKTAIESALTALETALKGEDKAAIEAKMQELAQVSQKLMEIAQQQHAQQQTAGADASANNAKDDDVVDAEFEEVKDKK
B2: DnaK I483D (protein)
chain: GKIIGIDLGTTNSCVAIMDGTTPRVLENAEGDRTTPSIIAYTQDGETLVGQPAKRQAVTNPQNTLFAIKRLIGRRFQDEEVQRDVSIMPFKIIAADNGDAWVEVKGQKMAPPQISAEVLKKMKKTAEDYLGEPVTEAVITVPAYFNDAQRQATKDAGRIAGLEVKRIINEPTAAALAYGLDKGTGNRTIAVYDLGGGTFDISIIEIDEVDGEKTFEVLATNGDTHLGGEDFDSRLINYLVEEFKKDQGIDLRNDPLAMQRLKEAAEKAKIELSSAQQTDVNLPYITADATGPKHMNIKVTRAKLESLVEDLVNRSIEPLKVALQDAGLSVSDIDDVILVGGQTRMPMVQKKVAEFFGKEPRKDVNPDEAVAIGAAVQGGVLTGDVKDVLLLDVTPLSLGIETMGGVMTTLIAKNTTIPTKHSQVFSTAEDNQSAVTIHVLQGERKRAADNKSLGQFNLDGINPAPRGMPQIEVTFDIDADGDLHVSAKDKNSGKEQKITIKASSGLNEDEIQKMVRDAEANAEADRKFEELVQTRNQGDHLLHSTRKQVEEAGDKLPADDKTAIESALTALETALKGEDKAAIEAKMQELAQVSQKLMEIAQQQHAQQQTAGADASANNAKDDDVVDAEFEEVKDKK
B3: DnaK N170D (protein)
chain: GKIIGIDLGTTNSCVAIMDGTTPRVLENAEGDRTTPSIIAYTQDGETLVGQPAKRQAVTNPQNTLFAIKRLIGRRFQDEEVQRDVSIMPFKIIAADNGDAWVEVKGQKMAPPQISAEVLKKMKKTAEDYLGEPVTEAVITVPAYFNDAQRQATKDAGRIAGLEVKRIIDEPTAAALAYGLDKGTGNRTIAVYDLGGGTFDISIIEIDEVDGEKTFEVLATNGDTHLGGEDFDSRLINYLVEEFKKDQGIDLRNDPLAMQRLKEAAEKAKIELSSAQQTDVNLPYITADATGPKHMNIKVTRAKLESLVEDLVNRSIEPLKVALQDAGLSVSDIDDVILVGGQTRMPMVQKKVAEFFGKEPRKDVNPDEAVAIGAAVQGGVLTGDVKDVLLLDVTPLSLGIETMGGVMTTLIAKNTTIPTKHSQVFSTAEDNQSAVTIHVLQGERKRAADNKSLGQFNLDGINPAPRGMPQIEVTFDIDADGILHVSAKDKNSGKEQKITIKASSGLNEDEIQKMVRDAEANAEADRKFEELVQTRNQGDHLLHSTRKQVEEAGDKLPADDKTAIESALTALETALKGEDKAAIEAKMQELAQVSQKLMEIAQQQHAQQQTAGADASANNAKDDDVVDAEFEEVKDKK
B4: DnaK (protein)
chain: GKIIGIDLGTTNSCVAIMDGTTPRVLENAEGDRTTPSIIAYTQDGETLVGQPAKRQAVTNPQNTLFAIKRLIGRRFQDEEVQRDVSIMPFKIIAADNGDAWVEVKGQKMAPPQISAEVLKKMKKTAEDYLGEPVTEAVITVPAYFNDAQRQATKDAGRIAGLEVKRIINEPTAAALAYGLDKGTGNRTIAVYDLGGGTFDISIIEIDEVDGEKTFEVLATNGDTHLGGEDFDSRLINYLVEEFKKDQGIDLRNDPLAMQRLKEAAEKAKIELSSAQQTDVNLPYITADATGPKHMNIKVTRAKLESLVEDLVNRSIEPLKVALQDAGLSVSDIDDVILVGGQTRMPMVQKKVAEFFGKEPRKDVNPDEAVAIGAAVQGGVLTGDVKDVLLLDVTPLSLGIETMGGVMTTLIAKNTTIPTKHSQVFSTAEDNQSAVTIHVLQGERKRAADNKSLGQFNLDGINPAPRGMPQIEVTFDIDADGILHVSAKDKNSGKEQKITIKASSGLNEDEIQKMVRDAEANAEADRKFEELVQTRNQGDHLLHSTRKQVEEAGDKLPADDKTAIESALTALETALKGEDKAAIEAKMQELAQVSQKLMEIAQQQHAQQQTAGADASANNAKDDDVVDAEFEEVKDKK

Tests used:
Test in all cases: fluorescence anisotropy
NR peptide [1] = biological target: T1, NR peptide
NR peptide [2] = biological target: T2, NR peptide
NR peptide [3] = biological target: T3, NR peptide

Row | Binder | Kd (NR peptide [1]) [nM] | Kd (NR peptide [2]) [nM] | Kd (NR peptide [3]) [nM]
1 | B1 | 2900 |  | 
2 | B2 | 1750 |  | 
3 | B3 | 1710 |  | 
4 | B4 |  | 1640 | 36700
